40 molecules from the antibiotic and cytotoxicity screens of Wong et al. (2023) can be followed below.

Molecules are shown by their SMILES. Some of the results follow.

For one assay, the system named is HepG2. Nature of the assay: cytotoxicity call (relative viability < 0.9). Particulars: 10 µM.
As to `Fc1ccc(C2=NNC3=NCCN3C2)cc1F`, the cytotoxicity call is “inactive”.
On the same count and under the same terms, then `C[C@H](CO)N1C[C@H](C)[C@@H](CN(C)CC2CCCCC2)Oc2ccc(NC(=O)Nc3cccc4ccccc34)cc2CC1=O`, with “inactive”.
Same read-out and setting: then `C[C@@H]1CN([C@H](C)CO)C(=O)c2cc(NS(=O)(=O)c3cccs3)ccc2O[C@@H]1CN(C)S(=O)(=O)c1ccccc1`, with “inactive”; and `CNC(=O)Cn1c(=O)c2c(OC)ccnc2n(C)c1=O`, with “inactive”.
Still for that read-out and setting: then `C[C@H](CO)N1C[C@H](C)[C@@H](CN(C)C(=O)NC2CCCCC2)Oc2c(NC(=O)C3CC3)cccc2C1=O`, with “inactive”; and `C[C@@H]1CCCCO[C@H](CN(C)S(=O)(=O)c2ccc(Cl)cc2)[C@H](C)CN([C@@H](C)CO)C(=O)c2cc(NC(=O)Nc3ccc4c(c3)OCO4)ccc2O1`, with “active”.
In the case of `COc1cccc2c1C(=O)c1c(O)c3c(c(O)c1C2=O)C[C@](O)(C(C)=O)C[C@H]3O[C@H]1C[C@@H](N)[C@@H](O)[C@@H](C)O1`, the cytotoxicity call is “active”.
Same read-out and setting: then `Cc1noc(C)c1NC(=O)N(C)C[C@@H]1Oc2ccc(NC(=O)Nc3ccc(C(F)(F)F)cc3)cc2C(=O)N([C@@H](C)CO)C[C@H]1C`, with “inactive”; and `COc1ccc(CN(C)C[C@@H]2Oc3ccc(NC(=O)Cn4cnnn4)cc3C(=O)N([C@@H](C)CO)C[C@@H]2C)cc1`, with “inactive”.
Still for that read-out and setting: then `C[C@@H]1CN([C@H](C)CO)C(=O)c2cc(NC(=O)c3ccccc3)ccc2O[C@@H](C)CCCCO[C@@H]1CN(C)Cc1ccccc1`, with “inactive”.
Still for that read-out and setting: the result for `O=C1NC[C@@H](c2ccccc2)OC(=O)[C@@H](Cc2ccc(F)cc2)CC/C=C/C[C@@H]1CC(=O)N(CCO)Cc1ccccc1` reads “inactive”; that for `C[C@@H]1CCCCO[C@@H](CN(C)C(=O)Nc2ccccc2)[C@@H](C)CN([C@H](C)CO)C(=O)c2cc(NC(=O)NC3CCCCC3)ccc2O1`, “inactive”.

A further assay has as its system S. aureus RN4220. Nature of the assay: growth inhibition call (relative growth <= 0.2). Particulars: 50 µM.
Consider `C[C@@H]1CN([C@@H](C)CO)C(=O)c2cccc(NC(=O)Nc3ccc(F)cc3)c2O[C@@H]1CN(C)S(=O)(=O)c1cn(C)cn1`, for which the growth inhibition call was “inactive”.
Same read-out and setting: the result for `Cc1ccc(S(=O)(=O)N(C)C[C@H]2OCCCC[C@H](C)Oc3ccc(NC(=O)Nc4cccc5ccccc45)cc3C(=O)N([C@H](C)CO)C[C@@H]2C)cc1` reads “inactive”; that for `C[C@H](CO)N1C[C@H](C)[C@@H](CN(C)CC2CC2)Oc2c(NS(=O)(=O)c3ccccc3)cccc2C1=O`, “inactive”.
Still for that read-out and setting: the result for `Cc1noc(C)c1NC(=O)N(C)C[C@@H]1Oc2c(NC(=O)c3ccncc3)cccc2C(=O)N([C@@H](C)CO)C[C@H]1C` reads “inactive”.
With `CC(C)(O)C#Cc1ccc([C@@H]2[C@H]3CN(S(C)(=O)=O)CCCCN3[C@H]2CO)cc1`, the growth inhibition call was “inactive”.
On the same count and under the same terms, then `C[C@@H]1CCCCO[C@H](CN(C)C(=O)NC2CCCCC2)[C@@H](C)CN([C@H](C)CO)C(=O)c2cc(NC(=O)Nc3ccc(C(F)(F)F)cc3)ccc2O1`, with “inactive”; and `O=C(N[C@@H](c1ccccc1)c1ccc2ccccc2n1)C1CCN(CCOc2ccc(Cl)cc2)CC1`, with “active”.
On the same count and under the same terms, then `COc1ccc(C(=O)Nc2cccc(CN3C(=O)[C@]4(O[C@H](CC(=O)N(CCO)Cc5ccccc5)[C@@H]([Si](C)(C)c5ccc(OC)cc5)[C@@H]4C)c4ccccc43)c2)cc1`, with “inactive”; and `C[C@@H]1CCCCO[C@@H](CN(C)C(=O)Nc2ccc3c(c2)OCO3)[C@@H](C)CN([C@@H](C)CO)C(=O)c2cc(NC(=O)c3ccccc3)ccc2O1`, with “inactive”.
Take `C[C@@H]1CN([C@@H](C)CO)C(=O)CCCn2cc(nn2)CO[C@@H]1CN(C)C(=O)CCCN(C)C`: the growth inhibition call was “inactive”.
On the same count and under the same terms, then `C[C@@H]1CN([C@@H](C)CO)S(=O)(=O)c2ccc(C#CC3(O)CCCC3)cc2O[C@H]1CN(C)C(=O)c1ccncc1`, with “inactive”; and `N[C@@H](CCC(=O)N[C@@H](CCS[C@@H](CC(=O)O)C(=O)O)C(=O)NCC(=O)O)C(=O)O`, with “inactive”.
As for `COc1ccc(CN(C)C[C@H]2OCCCC[C@H](C)Oc3ccc(NS(=O)(=O)c4ccc(Cl)cc4)cc3C(=O)N([C@H](C)CO)C[C@@H]2C)cc1`, the growth inhibition call was “inactive”.
The same measure, in the same setting: the result for `CC(C)NC(=O)Nc1ccc2c(c1)C(=O)N([C@@H](C)CO)C[C@H](C)[C@@H](CN(C)Cc1ccc(Oc3ccccc3)cc1)O2` reads “inactive”.
Same read-out and setting: the result for `Cc1nnc(SCC2=C(C(=O)O)N3C(=O)[C@@H](N)[C@H]3SC2)s1` reads “inactive”; that for `Cc1noc(C)c1NC(=O)Nc1ccc2c(c1)C(=O)N([C@H](C)CO)C[C@@H](C)[C@@H](CN(C)S(=O)(=O)c1cccs1)OCCCC[C@@H](C)O2`, “inactive”; that for `Cc1ccc(S(=O)(=O)Nc2ccc3c(c2)C(=O)N([C@H](C)CO)C[C@@H](C)[C@@H](CN(C)C(=O)Cc2ccccc2)OCCCC[C@H](C)O3)cc1`, “inactive”.
Same read-out and setting: the result for `O=C(C[C@@H]1C[C@@H]2c3cc(NS(=O)(=O)c4ccc(F)cc4)ccc3O[C@@H]2[C@@H](CO)O1)NCc1ccncc1` reads “inactive”; that for `COc1ccccc1C#Cc1ccc2c(c1)O[C@@H](CN(C)Cc1ccncc1)[C@H](C)CN([C@@H](C)CO)S2(=O)=O`, “inactive”.
Consider `COc1ccc(S(=O)(=O)N(C)C[C@@H]2Oc3ccc(NS(=O)(=O)c4ccc(C)cc4)cc3CC(=O)N([C@H](C)CO)C[C@@H]2C)cc1`, for which the growth inhibition call is “inactive”.
Still for that read-out and setting: the result for `COC(=O)[C@@H](Cc1ccc(-n2cc(C(=O)NO)nn2)cc1)N1CC(/C=C/C2CC2)=C[C@H]1[C@H](O)Cc1ccccc1` reads “inactive”; that for `CNC[C@@H]1Oc2ccc(NC(=O)Cn3cnnn3)cc2C(=O)N([C@@H](C)CO)C[C@@H]1C`, “inactive”.
Same read-out and setting: then `C[C@H](CO)N1C[C@H](C)[C@@H](CN(C)CC2CC2)OCCCC[C@H](C)Oc2ccc(NC(=O)Nc3ccc(C(F)(F)F)cc3)cc2C1=O`, with “inactive”; and `COc1ccc(S(=O)(=O)Nc2cccc3c2O[C@H](CN(C)C(=O)Nc2cccc4ccccc24)[C@@H](C)CN([C@@H](C)CO)C3=O)cc1`, with “inactive”; and `CCc1nc2ccc(C(=O)N3CCN(S(=O)(=O)CC)CC3)cn2c1N(CCC(C)C)CCN(C)C`, with “inactive”.
Still for that read-out and setting: then `COc1ccc(NC(=O)N(C)C[C@@H]2OCCCC[C@H](C)Oc3ccc(NS(=O)(=O)c4ccc(Cl)cc4)cc3C(=O)N([C@H](C)CO)C[C@H]2C)cc1`, with “inactive”.
In the case of `C[C@@H]1CN([C@H](C)CO)C(=O)Cc2cc(NC(=O)CCCCCC(=O)Nc3ccccc3N)ccc2O[C@@H]1CN(C)S(C)(=O)=O`, the growth inhibition call is “inactive”.
The same measure, in the same setting: the result for `Cc1noc(C)c1S(=O)(=O)Nc1ccc2c(c1)C(=O)N([C@H](C)CO)C[C@H](C)[C@@H](CN(C)S(C)(=O)=O)O2` reads “inactive”.
Still for that read-out and setting: the result for `Fc1ccc(C2=NNC3=NCCN3C2)cc1F` reads “inactive”.
Consider `C[C@H](CO)N1C[C@H](C)[C@@H](CN(C)CC2CCCCC2)Oc2ccc(NC(=O)Nc3cccc4ccccc34)cc2CC1=O`, for which the growth inhibition call was “inactive”.
The same measure, in the same setting: then `C[C@@H]1CN([C@H](C)CO)C(=O)c2cc(NS(=O)(=O)c3cccs3)ccc2O[C@@H]1CN(C)S(=O)(=O)c1ccccc1`, with “inactive”; and `CNC(=O)Cn1c(=O)c2c(OC)ccnc2n(C)c1=O`, with “inactive”.
Same read-out and setting: the result for `C[C@H](CO)N1C[C@H](C)[C@@H](CN(C)C(=O)NC2CCCCC2)Oc2c(NC(=O)C3CC3)cccc2C1=O` reads “inactive”; that for `C[C@@H]1CCCCO[C@H](CN(C)S(=O)(=O)c2ccc(Cl)cc2)[C@H](C)CN([C@@H](C)CO)C(=O)c2cc(NC(=O)Nc3ccc4c(c3)OCO4)ccc2O1`, “inactive”; that for `COc1cccc2c1C(=O)c1c(O)c3c(c(O)c1C2=O)C[C@](O)(C(C)=O)C[C@H]3O[C@H]1C[C@@H](N)[C@@H](O)[C@@H](C)O1`, “active”.
Same read-out and setting: the result for `Cc1noc(C)c1NC(=O)N(C)C[C@@H]1Oc2ccc(NC(=O)Nc3ccc(C(F)(F)F)cc3)cc2C(=O)N([C@@H](C)CO)C[C@H]1C` reads “inactive”.
Consider `COc1ccc(CN(C)C[C@@H]2Oc3ccc(NC(=O)Cn4cnnn4)cc3C(=O)N([C@@H](C)CO)C[C@@H]2C)cc1`, for which the growth inhibition call was “inactive”.
Same read-out and setting: the result for `C[C@@H]1CN([C@H](C)CO)C(=O)c2cc(NC(=O)c3ccccc3)ccc2O[C@@H](C)CCCCO[C@@H]1CN(C)Cc1ccccc1` reads “inactive”; that for `O=C1NC[C@@H](c2ccccc2)OC(=O)[C@@H](Cc2ccc(F)cc2)CC/C=C/C[C@@H]1CC(=O)N(CCO)Cc1ccccc1`, “inactive”; that for `C[C@@H]1CCCCO[C@@H](CN(C)C(=O)Nc2ccccc2)[C@@H](C)CN([C@H](C)CO)C(=O)c2cc(NC(=O)NC3CCCCC3)ccc2O1`, “inactive”.
